The values below come from the supplement of paper PMC3334620.

In all, about 33,000 sequences were measured (“E-score (-0.5 to 0.5)”: median about -0.012, highest 2% from about 0.29 on). The list shows a part of the results.

For this test, the target named is T1, Ybr033w (UniProt P38073).
T1 sequence: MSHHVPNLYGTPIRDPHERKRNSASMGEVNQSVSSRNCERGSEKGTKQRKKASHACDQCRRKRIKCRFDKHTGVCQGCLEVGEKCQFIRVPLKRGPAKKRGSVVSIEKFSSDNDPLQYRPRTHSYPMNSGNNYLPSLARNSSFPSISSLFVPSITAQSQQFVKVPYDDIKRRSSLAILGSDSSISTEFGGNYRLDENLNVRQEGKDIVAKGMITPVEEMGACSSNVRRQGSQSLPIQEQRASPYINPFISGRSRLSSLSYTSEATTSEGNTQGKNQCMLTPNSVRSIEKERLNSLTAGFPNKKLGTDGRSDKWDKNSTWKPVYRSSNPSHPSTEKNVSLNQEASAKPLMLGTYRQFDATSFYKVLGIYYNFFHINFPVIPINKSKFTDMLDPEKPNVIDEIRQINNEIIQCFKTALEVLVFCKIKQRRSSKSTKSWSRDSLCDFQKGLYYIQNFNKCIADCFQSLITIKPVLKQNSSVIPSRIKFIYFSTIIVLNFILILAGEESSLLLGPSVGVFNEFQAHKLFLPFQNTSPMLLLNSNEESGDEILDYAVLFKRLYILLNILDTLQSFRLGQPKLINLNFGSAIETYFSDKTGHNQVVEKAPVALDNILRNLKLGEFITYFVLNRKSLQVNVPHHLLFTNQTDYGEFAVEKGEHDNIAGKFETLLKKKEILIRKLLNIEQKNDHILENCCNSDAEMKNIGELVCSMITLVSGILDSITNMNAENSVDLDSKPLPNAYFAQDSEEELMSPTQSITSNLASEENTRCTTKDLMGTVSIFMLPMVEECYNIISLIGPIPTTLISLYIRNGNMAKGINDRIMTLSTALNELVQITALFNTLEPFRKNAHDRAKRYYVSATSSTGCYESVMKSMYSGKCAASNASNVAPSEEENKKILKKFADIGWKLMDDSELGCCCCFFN
Briefly: PBM E-score (8-mer binding enrichment) (E-score (-0.5 to 0.5)); higher = stronger / more preferred TF binding; most listed sequences are background and not binding sites. The conditions noted are these: protein concentration: 200 nM; construct: GST-full length. The protocol:
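Universal 'all 10-mer' protein binding microarrays (Agilent AMADID 015681) probed with GST-tagged S. cerevisiae TFs (full-length or DBD) made by in vitro transcription/translation (PURExpress), about 100-200 nM. Bound TF was detected with fluorescent anti-GST. Each ungapped 8-mer (which stands for itself and its reverse complement) is scored by the PBM enrichment score (E-score), a modified Wilcoxon-Mann-Whitney statistic from -0.5 to +0.5, computed with the Universal PBM Analysis Suite. Scale: above 0.35 generally sequence-specific binding.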
Consider ACACGACC, for which the “PBM E-score” value was -0.177.
The same measure for GTAGTGCA: 0.114; for CTGTCAAC: -0.0711.
The same measure for GAACTGTA: 0.193.
For CTGCTCAC, the “PBM E-score” value was -0.143.
The same measure for CAAATAGG: 0.00709; for GGCATCAA: -0.0874.
The same measure for ACCTGCGA: -0.113.
AACTAACT: the “PBM E-score” value amounted to 0.126.
The same measure for ATAGTTCC: 0.25; for CCGGCCTC: -0.306; for CATCTCGA: -0.0245.
The figure for GCCGGTAA is 0.0064; for TCAAAAGA it is 0.167; for CAAATTCG it is 0.164.
As to GCAGAACC, the “PBM E-score” value is -0.252.
The same measure for AGGAAACA: 0.172.
The figure for ACCAACGC is -0.264.
The same measure for AGGATAAA: 0.427; for AATTCGCG: 0.0683; for ATTGTTAG: 0.0815.
Turning to GTATTCTA, the “PBM E-score” value is 0.207.
Take CTGATGGC: the “PBM E-score” value was -0.163.
The figure for TAGCTCGA is 0.0406; for AATTTGTA it is 0.206; for CCTTCTGC it is -0.175.
In the case of GACGACCA, the “PBM E-score” value is -0.124.
The same measure for AATCAGCA: 0.17; for ACAACATA: 0.0981; for CTCTAAGA: 0.0486.
GACTCAAA: the “PBM E-score” value worked out at 0.00131.
As to CCTGCCCC, the “PBM E-score” value is -0.282.
In the case of CCACTTAG, the “PBM E-score” value was -0.154.
The figure for AACGCTCA is -0.0631; for CTATTATC it is 0.21; for CAAACACC it is 0.0219.
The figure for ATTCCGGC is 0.0756; for CAATCTGC it is -0.19; for GATGAGTA it is 0.206.
On to CAGCGTCC, for which the “PBM E-score” value was -0.145.
For GAATCTTA, the “PBM E-score” value worked out at 0.196.
Take ATAAGTGC: the “PBM E-score” value is -0.0719.
The figure for CAAAACCA is 0.245; for GTCTCAAA it is -0.144; for AAAACCTG it is -0.00791.
In the case of GATTCACA, the “PBM E-score” value was found to be 0.0232.
Regarding GTAGGGAA, the “PBM E-score” value worked out at 0.118.
The figure for GTGGCTGA is -0.183.
The same measure for ACAGCTTC: -0.0252.
Turning to GTCTTACA, the “PBM E-score” value was -0.0881.
The same measure for CAGTTTAG: -0.119; for CGGGATGA: -0.105; for CAAACCTC: -0.143.
Consider CGTCCTGA, for which the “PBM E-score” value is -0.175.
Consider CCCTCGTC, for which the “PBM E-score” value was -0.185.
The same measure for CTCAAAAC: 0.217; for ATAGCTAA: -0.15.
Regarding ATGGCTAA, the “PBM E-score” value was found to be 0.0256.
The same measure for AAACGCGG: 0.0652; for GTTCACGA: 0.00909.
The same measure for GGATGTAC: 0.0229; for AAGATTCT: 0.0852; for CAGTTCTA: -0.0312.
The same measure for CTCTACAG: 0.00706; for ATTAAGCC: 0.0562; for CTCTGAAA: -0.057.
For the sequence AGCGACCA, the “PBM E-score” value was 0.00765.
The same measure for ACTAGGAA: 0.067; for ATCTCCCG: -0.206.
Take CGTTAGTC: the “PBM E-score” value turned out to be 0.043.
The same measure for AATTAGGT: 0.249; for CGGACGTA: -0.151; for GCAAATGC: -0.183.
As to ATCGAATC, the “PBM E-score” value was 0.0745.
In the case of CCGCCGAC, the “PBM E-score” value is -0.17.
The same measure for AATTATGC: 0.21.
Take GCCTCAGC: the “PBM E-score” value was -0.194.
The same measure for CCGCCCGG: -0.168; for GAGCAGTA: 0.108; for CATCTATA: 0.188.
The figure for AATGATCA is 0.0742; for GCATTCGC it is -0.0981; for TGAGTCAA it is 0.0985.
With AGCCAGCA, the “PBM E-score” value was -0.0216.
The same measure for CTCGTGTC: -0.153; for CTACTTTA: 0.0924.
On to AACGGTAC, for which the “PBM E-score” value was found to be 0.215.
For the sequence GCGAAAGA, the “PBM E-score” value was -0.108.
In the case of AGCGAAAT, the “PBM E-score” value was 0.0244.
Turning to GAATACAA, the “PBM E-score” value amounted to 0.196.
As to CGTTGCGC, the “PBM E-score” value is -0.0731.
The figure for GACAAAAA is 0.261.
The same measure for CGAAGGTC: -0.183; for ATCGGGGG: -0.37.
